This is one part of the list.
system: T1, C. trachomatis L2/434/Bu expressing GFP (CTL2-GFP); design: species or system HeLa; C. trachomatis total inclusion area by high-content imaging, normalised to DMSO; settings: total inclusion area; 28.5 h, 10 µM; inhibitor
T1 construct: L2/434/Bu GFP intracellular growth in HeLa cells
In short: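 Bulk GFP and resorufin signals were read first. Wells were then fixed, stained with Hoechst and imaged to detect GFP inclusions and host nuclei. MICs followed the previously described calculation.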

| SMILES | % of control remaining |
| --- | --- |
| CC(C)(C)c1ccc(-c2ccc3ccc(=O)[nH]c3n2)cc1 [CBK073716] | 97.958 |
| Cc1cnc(CNS(=O)(=O)c2c(C)noc2C)cn1 [CBK062328] | 102.122 |
| CCn1c(CN2CC(C)CC(C)C2)nc2c1c(=O)n(C)c(=O)n2C (stereo not drawn) [CBK306030] | 75.3999 |
| O=C(O)c1ccc(/C=N\NC(=O)C2COc3cc4ccccc4cc3O2)cc1 (stereo not drawn) [CBK262792] | 81.5474 |
| O=c1nc(-c2cc(Br)cs2)[nH]c2ccc(Cl)cc12 [CBK018959] | 105.713 |
| NC(CC(=O)O)c1ccc(OCCc2ccccc2)cc1 (stereo not drawn) [CBK287053] | 94.6185 |
| Cc1ccc(S(=O)(=O)Nc2ccccc2C(N)=O)cc1 [CBK056893] | 91.9428 |
| CCOc1cc(/C=C2\SC(=S)N(NC(=O)c3cccnc3)C2=O)ccc1O [CBK262759] | 82.4163 |
| COC(=O)C1C(=O)NC(SCC(=O)Nc2cccc(Cl)c2C)=C(C#N)C1c1ccccc1F (stereo not drawn) [CBK265830] | 134.508 |
| C[C@@H]1CN(C(=O)c2cscn2)C[C@H](C)O1 [CBK200371] | 94.4929 |
| CN(C/C=C/c1ccccc1[N+](=O)[O-])CCc1ccccn1 [CBK261890] | 91.5623 |
| O=C(CSc1ccc(-c2ccc(-n3ccnc3)cc2)nn1)NCc1ccco1 [CBK287717] | 65.9388 |
| COc1ccc2sc(C)nc2c1 [CBK028488] | 124.548 |
| CCCCSc1nnc(-c2ccc(Br)cc2)o1 [CBK027012] | 67.6642 |
| O=C(N/N=C/c1c(O)ccc2ccccc12)c1cnccn1 [CBK262400] | 67.2556 |
| Cc1ncc(CN(C)C(=O)c2cccc(NC(=O)C3CCCCC3)c2)s1 [CBK306295] | 85.4244 |
| NS(=O)(=O)c1ccc(CCNC2CC(=O)N(CCc3ccccc3)C2=O)cc1 (stereo not drawn) [CBK263502] | 120.702 |
| CCN1CCC(Oc2nccnc2OCCN2CCOCC2)CC1 [CBK082931] | 122.871 |
| O=C(Nc1cccc(S(=O)(=O)N2CCCC2)c1)c1nc[nH]n1 [CBK268353] | 79.5014 |
| O=C(Cc1ccccn1)NC(Cc1cccs1)c1ccccn1 (stereo not drawn) [CBK282243] | 101.866 |
| O=C(CSc1nnc2c(n1)[nH]c1ccccc12)NCCOc1ccccc1 [CBK268358] | 73.7147 |

| SMILES | % of control remaining |
| --- | --- |
| O=S(=O)(Nc1cccc(C(F)(F)F)c1)c1ccc(N2CCCNCC2)c2ccccc12 [CBK003929C] | 78.0576 |
| Cc1nc(C(Cc2ccsc2)NC(=O)C2CCC(=O)N2)sc1C (stereo not drawn) [CBK284780] | 90.5243 |
| O=C(CN(c1cc(C(F)(F)F)ccc1Cl)S(=O)(=O)c1ccccc1)NCc1cccnc1 [CBK264607] | 98.8877 |
| O=C(O)Cn1cnc(-c2ccc(Br)cc2)c1 [CBK262441] | 104.155 |
| Cc1ccc2[nH]c(-c3cncn3C(C)CN3CCOCC3)c(C)c2c1 (stereo not drawn) [CBK281794] | 74.1415 |
| CCOC(=O)c1ccc(N2CC(C(=O)O)CC2=O)cc1 (stereo not drawn) [CBK268106] | 95.8607 |
| COC(=O)c1sccc1NS(=O)(=O)c1ccccc1C(F)(F)F [CBK034717] | 96.4313 |
| COC(=O)c1c(NC(=S)NCc2cccs2)sc(C)c1-c1ccccc1 [CBK266943] | 137.951 |
| CCCc1c(C)nc2ccccc2c1SCC(=O)O [CBK263558] | 33.2951 |
| Cc1cc(Oc2ccccc2)nc(Oc2ccc(OCC(N)=O)nn2)n1 [CBK266687] | 101.288 |
| O=C(c1cccnc1N1CCCCC1)N1CCCCC1 [CBK025882] | 76.7283 |
| O=C(Cc1cc(F)c(F)c(F)c1)Nc1ccc2ncccc2c1 [CBK159811] | 93.1532 |
| O=C1NN(c2cccc(Cl)c2)C(=O)/C1=C\c1ccc(-c2ccc3c(c2)C(=O)NC3=O)o1 [CBK262970] | 63.7923 |
| Cc1cc(C)c(NS(=O)(=O)c2ccc(NC(=S)Nc3ccc(S(N)(=O)=O)cc3)cc2)c(C)c1 [CBK267005] | 91.1551 |
| O=C(c1cscn1)N1CCCCC1c1nc2ccccc2[nH]1 (stereo not drawn) [CBK283394] | 104.694 |
| CCSc1ccc(-c2cn3ccnc3c(N3CCN(CCN(C)C)CC3)n2)cc1 [CBK066662] | 146.194 |
| Cc1nc(NC(CC(C)C)C(=O)O)c2nc(C)oc2n1 (stereo not drawn) [CBK022157] | 110.27 |
| Cn1ccnc1C1(O)CC2CCC(C1)N2C(=O)c1cccc(F)c1 (stereo not drawn) [CBK284089] | 111.582 |
| Cc1cc(NC(=O)c2c(F)cccc2F)c2ccccc2n1 [CBK122737] | 90.4285 |
| O=C(OCCN1C[C@H]2CCCCC2C1c1ccccc1)c1ccc(Br)cc1 (stereo partly drawn) [CBK016175C] | 17.0876 |
| Cc1ccc(C(=O)N2CCC(O)(c3cccnc3F)CC2)o1 [CBK284358] | 72.9846 |

| SMILES | % of control remaining |
| --- | --- |
| Cc1ccc([N+](=O)[O-])cc1NC(=O)CSC1=NCCS1 [CBK267489] | 99.6599 |
| CNC(=O)c1c(C)nc2ccccc2c1SCCC(=O)O [CBK154987T] | 103.057 |
| O=C(O)CC(Cc1ccc(Cl)cc1)C(=O)NCc1ccccc1 (stereo not drawn) [CBK286984] | 85.333 |
| Cc1cc(S(=O)(=O)NCC(=O)OC(C)C)c(C)cc1Cl [CBK044196] | 100.233 |
| O=C(O)C(c1c[nH]c2cc(F)ccc12)N1CCN(c2ccccc2)CC1 (stereo not drawn) [CBK286675] | 86.0448 |
| COc1ccc(S(=O)(=O)Nc2nc3c(s2)C(=O)CC(C)(C)C3)cc1 [CBK095611] | 93.4904 |
| CCNC(=O)c1cncc(-c2[nH]nnc2-c2ccccc2)c1 [CBK160354] | 80.7141 |
| CN1CCN(S(=O)(=O)c2ccc(NC(=O)c3cc(-c4cccnc4)nc4ccc(Cl)cc34)cc2)CC1 [CBK267734] | 94.7656 |
| CCOC(=O)CN1CCC(Oc2nccnc2OC2CCCCC2)CC1 [CBK082867T] | 69.9059 |
| COc1ccc(-c2cnc(N)c(N3CCN(C)CC3)n2)c(OC)c1OC [CBK063489] | 74.8299 |
| COCC(=O)N1CCN2C(=O)[C@@H]3C[C@@H](OCc4ccc(F)cc4)CN3C(=O)[C@@H]2C1 [CBK289605] | 64.244 |
| CCCNC(=O)Cn1ncc2c3sc(C)cc3n(CC)c2c1=O [CBK284171] | 91.0283 |
| CC(C)(C)CC(=O)N[C@H]1C[C@H]2C(=O)Nc3ccccc3C(=O)N2C1 [CBK289352] | 84.5741 |
| COc1ccc(C2(CNC(=O)c3ccc(C)cc3)CCOCC2)cc1 [CBK067060] | 107.188 |
| CN(c1nc(-c2cccnc2)cn2ccnc12)C1CCCCC1 [CBK093609] | 89.781 |
| CCOC(=O)c1sc(NS(=O)(=O)c2ccc(C(=O)O)cc2)cc1C [CBK296623] | 71.734 |
| COc1cc(C#N)ccc1OCc1ccc2nc(C(F)(F)F)cc(Cl)c2c1 [CBK002589] | 63.3441 |
| O=C(c1ccc(Br)o1)n1cc(C(F)(F)F)ccc1=O [CBK022391] | 69.7676 |
| CC(=O)Nc1cc(NC(=O)CCCC(=O)O)ccc1Cl [CBK263949] | 102.069 |
| CNc1sc(C(=O)c2ccc(OC)c(OC)c2)c(N)c1C#N [CBK270194] | 86.5303 |
| CCOC(=O)N1CCC(NC(=O)c2cnn3c(C)c(Cc4ccccc4)c(C)nc23)CC1 [CBK160293] | 94.5309 |

| SMILES | % of control remaining |
| --- | --- |
| COc1c(Cl)cc(Cl)cc1CNCc1cccnc1 [CBK270142C] | 120.888 |
| CC(C)(C)OC(=O)NC1CCC(NCc2c[nH]c(-c3ccccc3)n2)CC1 (stereo not drawn) [CBK056692] | 107.034 |
| O=C(CN1C(=O)N2CCCN=C2c2ccccc21)NC1CCCC1 [CBK284397] | 73.8909 |
| O=C(O)CN1C(=O)S/C(=C\c2ccc([N+](=O)[O-])o2)C1=O [CBK017858] | 51.647 |
| O=S(=O)(c1ccccc1)c1ccccc1C(F)(F)F [CBK085887] | 89.5793 |
| CC(C)(C)OC(=O)N1CCC(CNS(=O)(=O)c2cccs2)CC1 [CBK086019] | 47.8801 |
| O=C(c1nc(SCc2ccccc2)ncc1Cl)N1CCN(c2cccc(Cl)c2)CC1 [CBK268712] | 84.2067 |
| O=C(Cc1ccccc1Oc1ccccc1)Nc1cnc(-c2ccc(F)cc2)c(-c2ccco2)n1 [CBK037194] | 86.118 |
| O=C(Oc1ccc(Cl)cc1)c1cc(S(=O)(=O)N2CCOCC2)ccc1Cl [CBK261670] | 93.1063 |
| Oc1cc(Cc2ccccc2)cnc1CN1CCOCC1 [CBK288173] | 93.898 |
| CC(=O)N1CCN(c2nc3ccccc3s2)CC1 [CBK287362] | 96.531 |
| CCOC(=O)c1c[nH]c2nc(COc3ccccc3)nn2c1=O [CBK268088] | 93.9743 |
| O=C(O)/C=C\C(=O)Nc1ccccc1C(=O)N1CCOCC1 [CBK287067] | 117.15 |
| N#Cc1ccc(C(=O)N2C[C@@H]3C[C@H](C2)c2ccc(-c4cccs4)c(=O)n2C3)cc1 [CBK289180] | 139.322 |
| Cc1nc(C2CCCCN2C(=O)CCc2ccccc2)ncc1C(=O)Nc1ccc(F)cc1 (stereo not drawn) [CBK285870] | 94.4226 |
| Cc1nc(Cc2nc(-c3ccc4c(c3)CCCN4S(C)(=O)=O)cs2)cs1 [CBK304542] | 47.169 |
| CC(C)(C)OC(=O)N1CCC(Oc2ccc(CN)cc2)CC1 [CBK004131] | 33.8603 |
| COCCNC(=O)c1ccc(-c2ccccc2)nc1NCC1CC1 [CBK106242] | 103.199 |

Reference: publication PMC12040169 (PLOS Biology, 2025)
